# Measured values from the supplement of paper PMC8728848.
# Some of the results follow.
# Assays:
# Assay in all cases: glycan array binding signal (z-score within array); higher = stronger binding
# Conditions in all cases: glycan notation: IUPAC condensed, linker removed
# [1] = target: Neu5Ac(a2-3)Gal(b1-4)GlcNAc(b1-3)Gal(b1-3)GlcNAc
# In short: (§1)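 From the Consortium for Functional Glycomics database, 3228 arrays were curated, keeping only those whose protein sequence was available. Binding is given as a within-array Z-score averaged across arrays sharing a protein sequence and across linkers. Negative Z-scores can be read as non-binding.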
# [2] = target: Neu5Ac(a2-3)Gal(b1-4)GlcNAc(b1-3)Gal(b1-4)GlcNAc
# In short: as §1
# [3] = target: Neu5Ac(a2-3)Gal(b1-4)GlcNAc(b1-3)Gal(b1-4)GlcNAc(b1-3)Gal(b1-4)GlcNAc
# In short: as §1
# [4] = target: Neu5Ac(a2-3)Gal(b1-4)GlcNAc(b1-3)Gal(b1-4)[Fuc(a1-3)]GlcNAc
# In short: as §1
# [5] = target: Neu5Ac(a2-3)Gal(b1-4)GlcNAc(b1-3)GalNAc
# In short: as §1
# [6] = target: Neu5Ac(a2-3)Gal(b1-4)GlcNAc(b1-3)[Neu5Ac(a2-3)Gal(b1-4)GlcNAc(b1-6)]GalNAc
# In short: as §1
# [7] = target: Neu5Ac(a2-3)Gal(b1-4)GlcNAc(b1-6)GalNAc
# In short: as §1
# [8] = target: Neu5Ac(a2-3)Gal(b1-4)GlcNAc(b1-6)[Gal(b1-3)]GalNAc
# In short: as §1
# [9] = target: Neu5Ac(a2-3)Gal(b1-4)GlcNAc(b1-6)[Neu5Ac(a2-3)Gal(b1-3)]GalNAc
# In short: as §1
# [10] = target: Neu5Ac(a2-3)Gal(b1-4)GlcNAc6S
# In short: as §1
# [11] = target: Neu5Ac(a2-3)Gal(b1-4)[Fuc(a1-3)]GlcNAc
# In short: as §1
# [12] = target: Neu5Ac(a2-3)Gal(b1-4)[Fuc(a1-3)]GlcNAc(b1-3)Gal
# In short: as §1
# [13] = target: Neu5Ac(a2-3)Gal(b1-4)[Fuc(a1-3)]GlcNAc(b1-3)Gal(b1-4)GlcNAc
# In short: as §1
# [14] = target: Neu5Ac(a2-3)Gal(b1-4)[Fuc(a1-3)]GlcNAc(b1-3)Gal(b1-4)[Fuc(a1-3)]GlcNAc(b1-3)Gal(b1-4)[Fuc(a1-3)]GlcNAc
# In short: as §1
# [15] = target: Neu5Ac(a2-3)Gal(b1-4)[Fuc(a1-3)]GlcNAc(b1-3)GalNAc
# In short: as §1
# [16] = target: Neu5Ac(a2-3)Gal(b1-4)[Fuc(a1-3)]GlcNAc(b1-6)[Gal(b1-3)]GalNAc
# In short: as §1
# [17] = target: Neu5Ac(a2-3)Gal(b1-4)[Fuc(a1-3)]GlcNAc(b1-6)[Neu5Ac(a2-3)Gal(b1-3)]GalNAc
# In short: as §1
# [18] = target: Neu5Ac(a2-3)Gal(b1-4)[Fuc(a1-3)]GlcNAc6S
# In short: as §1
# [19] = target: Neu5Ac(a2-3)Gal6S(b1-4)GlcNAc
# In short: as §1
# [20] = target: Neu5Ac(a2-3)Gal6S(b1-4)[Fuc(a1-3)]GlcNAc
# In short: as §1
# [21] = target: Neu5Ac(a2-3)GalNAc
# In short: as §1
# [22] = target: Neu5Ac(a2-3)GalNAc(b1-4)GlcNAc
# In short: as §1
# [23] = target: Neu5Ac(a2-3)[GalNAc(b1-4)]Gal(b1-4)Glc
# In short: as §1
# [24] = target: Neu5Ac(a2-3)[GalNAc(b1-4)]Gal(b1-4)GlcNAc
# In short: as §1
# [25] = target: Neu5Ac(a2-3)[GalNAc(b1-4)]Gal(b1-4)GlcNAc(b1-3)GalNAc
# In short: as §1
# [26] = target: Neu5Ac(a2-3)[Neu5Ac(a2-6)]GalNAc
# In short: as §1
# [27] = target: Neu5Ac(a2-6)Gal
# In short: as §1
# [28] = target: Neu5Ac(a2-6)Gal(b1-3)GlcNAc(b1-3)[Gal(b1-4)GlcNAc(b1-6)]Gal(b1-4)Glc
# In short: as §1
# [29] = target: Neu5Ac(a2-6)Gal(b1-4)Glc
# In short: as §1
# [30] = target: Neu5Ac(a2-6)Gal(b1-4)GlcNAc
# In short: as §1
# [31] = target: Neu5Ac(a2-6)Gal(b1-4)GlcNAc(b1-2)Man(a1-3)Man(b1-4)GlcNAc(b1-4)GlcNAc
# In short: as §1
# [32] = target: Neu5Ac(a2-6)Gal(b1-4)GlcNAc(b1-2)Man(a1-3)[Gal(b1-4)GlcNAc(b1-2)Man(a1-6)]Man(b1-4)GlcNAc(b1-4)GlcNAc
# In short: as §1
# [33] = target: Neu5Ac(a2-6)Gal(b1-4)GlcNAc(b1-2)Man(a1-3)[GlcNAc(b1-2)Man(a1-6)]Man(b1-4)GlcNAc(b1-4)GlcNAc
# In short: as §1
# [34] = target: Neu5Ac(a2-6)Gal(b1-4)GlcNAc(b1-2)Man(a1-3)[GlcNAc(b1-2)Man(b1-4)GlcNAc(b1-2)Man(a1-6)]Man(b1-4)GlcNAc(b1-4)GlcNAc
# In short: as §1
# [35] = target: Neu5Ac(a2-6)Gal(b1-4)GlcNAc(b1-2)Man(a1-3)[Man(a1-6)]Man(b1-4)GlcNAc(b1-4)GlcNAc
# In short: as §1
# [36] = target: Neu5Ac(a2-6)Gal(b1-4)GlcNAc(b1-2)Man(a1-3)[Neu5Ac(a2-6)Gal(b1-4)GlcNAc(b1-2)Man(a1-6)]Man(b1-4)GlcNAc(b1-4)GlcNAc
# In short: as §1
# [37] = target: Neu5Ac(a2-6)Gal(b1-4)GlcNAc(b1-2)Man(a1-3)[Neu5Ac(a2-6)Gal(b1-4)GlcNAc(b1-2)Man(a1-6)]Man(b1-4)GlcNAc(b1-4)[Fuc(a1-6)]GlcNAc
# In short: as §1
# [38] = target: Neu5Ac(a2-6)Gal(b1-4)GlcNAc(b1-2)Man(a1-6)Man(b1-4)GlcNAc(b1-4)GlcNAc
# In short: as §1
binder,measurement,setting,value
"Calsepa (Calystegia sepium), P93114 (protein) MAVPMDTISGPWGNNGGNFWSFRPVNKINQIVISYGGGGNNPIALTFSSTKADGSKDTITVGGGGPDSITGTEMVNIGTDEYLTGISGTFGIYLDNNVLRSITFTTNLKAHGPYGQKVGTPFSSANVVGNEIVGFLGRSGYYVDAIGTYNRHK",glycan array binding signal (z-score),[1],-0.247
same,glycan array binding signal (z-score),[2],-0.248
same,glycan array binding signal (z-score),[3],-0.25
same,glycan array binding signal (z-score),[4],-0.25
same,glycan array binding signal (z-score),[5],-0.249
same,glycan array binding signal (z-score),[6],-0.273
same,glycan array binding signal (z-score),[7],-0.272
same,glycan array binding signal (z-score),[8],-0.251
same,glycan array binding signal (z-score),[9],-0.252
same,glycan array binding signal (z-score),[10],-0.238
same,glycan array binding signal (z-score),[11],-0.248
same,glycan array binding signal (z-score),[12],-0.245
same,glycan array binding signal (z-score),[13],-0.236
same,glycan array binding signal (z-score),[14],-0.241
same,glycan array binding signal (z-score),[15],-0.251
same,glycan array binding signal (z-score),[16],-0.247
same,glycan array binding signal (z-score),[17],-0.188
same,glycan array binding signal (z-score),[18],-0.244
same,glycan array binding signal (z-score),[19],-0.255
same,glycan array binding signal (z-score),[20],-0.248
same,glycan array binding signal (z-score),[21],-0.253
same,glycan array binding signal (z-score),[22],-0.249
same,glycan array binding signal (z-score),[23],-0.253
same,glycan array binding signal (z-score),[24],-0.243
same,glycan array binding signal (z-score),[25],-0.272
same,glycan array binding signal (z-score),[26],-0.242
same,glycan array binding signal (z-score),[27],-0.241
same,glycan array binding signal (z-score),[28],-0.273
same,glycan array binding signal (z-score),[29],-0.249
same,glycan array binding signal (z-score),[30],-0.247
same,glycan array binding signal (z-score),[31],6.79
same,glycan array binding signal (z-score),[32],3.54
same,glycan array binding signal (z-score),[33],3.81
same,glycan array binding signal (z-score),[34],3.49
same,glycan array binding signal (z-score),[35],3.86
same,glycan array binding signal (z-score),[36],4.29
same,glycan array binding signal (z-score),[37],0.514
same,glycan array binding signal (z-score),[38],-0.246
